Structures are written as SMILES. “And” between values parts separate entries of the source, which are not always exact repeats. Equal values may be shown once. Among all 110,000 compounds or so, about 230 (0.21%) showed an effect of 50% or more. Some of the results follow.
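Note: 30 min substrate incubation versus DMSO and 10 µM JCP410 controls.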

DPAP1, sequence (Q8IIJ9 whole entry, looked up): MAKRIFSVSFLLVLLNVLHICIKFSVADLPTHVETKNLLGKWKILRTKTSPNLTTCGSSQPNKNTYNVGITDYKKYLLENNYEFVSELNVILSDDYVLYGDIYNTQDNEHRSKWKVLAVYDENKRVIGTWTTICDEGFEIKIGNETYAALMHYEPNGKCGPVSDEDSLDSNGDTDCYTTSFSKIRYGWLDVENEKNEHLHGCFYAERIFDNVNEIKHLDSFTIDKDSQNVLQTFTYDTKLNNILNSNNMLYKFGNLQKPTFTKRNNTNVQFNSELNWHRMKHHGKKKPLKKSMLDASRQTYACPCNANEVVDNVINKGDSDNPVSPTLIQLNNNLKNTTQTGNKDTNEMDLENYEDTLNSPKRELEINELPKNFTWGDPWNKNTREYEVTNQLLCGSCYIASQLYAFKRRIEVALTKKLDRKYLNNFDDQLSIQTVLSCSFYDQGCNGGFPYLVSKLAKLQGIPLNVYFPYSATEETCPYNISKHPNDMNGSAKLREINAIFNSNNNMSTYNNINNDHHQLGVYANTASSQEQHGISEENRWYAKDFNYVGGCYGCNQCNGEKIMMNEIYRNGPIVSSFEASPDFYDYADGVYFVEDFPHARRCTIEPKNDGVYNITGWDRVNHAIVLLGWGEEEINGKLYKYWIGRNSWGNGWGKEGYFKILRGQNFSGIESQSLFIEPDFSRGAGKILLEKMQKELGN

The test has as its target DPAP1 (Plasmodium falciparum, UniProt Q8IIJ9). Put plainly: primary screen, percent inhibition; read by cleavage of a fluorogenic dipeptide substrate; higher = more effect of the substance. Details: species or system P. falciparum D10 trophozoite lysates; single well.
Turning to `Cc1nc2ccccc2nc1S(=O)(=O)c1ccccc1`, the “% Inhibition @ 10 uM” value is listed as -0.99%.
As to `CC(NC(=O)c1ccccc1NC(=O)CCSc1ccccc1)c1ccccc1` (stereo not shown), the “% Inhibition @ 10 uM” value was -3.87%.
With `Nc1cccc(C(=O)Nc2ccc(N)cc2N)c1` the figure was 1.02%; with `CCN(CC)CCCNC(=O)CCCn1nc(C)c2c(C)n(-c3ccc(C)cc3)nc2c1=O`, -1.39%.
`COc1ccc(C2C3=C(NCCN=C3c3ccccc3)C(=O)N2c2ccccc2)cc1OC` (stereo not shown): the “% Inhibition @ 10 uM” value is -10.4%.
With `COc1ccc(-c2nn(C)c(=O)c3ccccc23)cc1CNC(=O)CN1CCOCC1` the figure was -3.13%.
For `O=C(/C=C/c1ccccc1)N1CCCCCC1` the value was 3.1%; for `O=C(O)CCC(=O)Nc1cccc(C(=O)c2ccccc2)c1`, -0.553%; for `CCN(CCN(C)C)Cc1ccc(OC(F)(F)F)cc1`, -1.75%.
With `Cc1ccc(C)c(S(=O)(=O)Nc2ccc3sc(C)nc3c2)c1` the figure was -6.74%; with `COc1cc(C2C(=O)N(C3CCC(C)CC3)CC(=O)N2CCc2ccccc2)ccc1OC(C)C` (stereo not shown), -2.26%.
For the compound `COc1ccc2ccccc2c1C1CC(=O)N2CN(Cc3ccco3)CSC2=C1C#N` (stereo not shown), the “% Inhibition @ 10 uM” value worked out at 31.2%.
With `COc1ccc(C(=O)Nc2sc(Cc3ccccc3)cc2C(N)=O)cc1` the figure was -0.116%.
For `CCN(CC)CCNC(=O)c1cc(-c2cccnc2)nc2ccccc12` the value was -2.26%; for `CC(C)CCNC(=O)c1csc2c1CCCC2`, 6.59%.
With `CN1CCN(C(=O)Cn2ncc3c4ccccc4n(Cc4ccccc4F)c3c2=O)CC1` the figure was 3.4%.
Turning to `Cc1ccc2c(c1)cc1c(=O)n(CC(=O)NCCc3c[nH]c4ccccc34)nc(C)n12`, the “% Inhibition @ 10 uM” value is reported as 3.09%.
For `CCSc1nnc(NC(=O)CSc2nc3c(cc2C#N)CCCC3)s1` the value was -2.14%; for `CCOC(=O)c1nnn(-c2cc(Cl)ccc2OC)c1C(=O)OCC`, -7.46%; for `Cn1nc(Oc2nc(N3CCCCC3)nc(N3CCCCC3)n2)ccc1=O`, 0.628%.
For `Cc1cc2c3c(c1)C(C)CC(C)(C)N3C(=O)C2=O` (stereo not shown) the value was 0.674%.
For the compound `OC1=C2C(=Nc3nc4ccccc4n3C2c2cccnc2)CC(c2ccc(Cl)cc2)C1` (stereo not shown), the “% Inhibition @ 10 uM” value was 6.64%.
For `COc1ccc(C(=O)Nc2ccc(C(=O)c3ccccc3)cc2)cc1` the value was -1.28%; for `Cc1sc2nc(-c3cccs3)nc(O)c2c1C`, 0.392%; for `OC(CNCC1COc2ccccc2O1)COc1ccccc1` (stereo not shown), 1.15%.
With `COc1nc2c(C)cccc2cc1-c1noc(-c2ccc(C)cc2)n1` the figure was 1%.
With `O=C(NCCc1ccccc1)C1COc2ccccc2O1` (stereo not shown) the figure was -6.3%; with `CC(=O)Nc1ccc(N/C=C(/C#N)c2nc(-c3ccc4c(c3)OCO4)cs2)cc1`, -1.64%; with `CCCCOc1ccccc1C1C(C(=O)OCC)=CN(C(C)C)C=C1C(=O)OCC`, -1.48%.
Consider `CCN(CC)C(=O)CSc1nc2nnc(C)c-2c(N)n1-c1ccc(Cl)c(C)c1`, for which the “% Inhibition @ 10 uM” value is reported as 8.71%.
With `COc1cc2c(cc1OC)C(c1ccc(Br)cc1)NCC2` (stereo not shown) the figure was 1.66% and 7.66%; with `COc1cccc(/C=C(\C#N)C(=O)NCCc2ccccc2Cl)c1OC`, -2.21%.
For `COc1ccc(-c2noc(-c3nnn(-c4cc(Cl)ccc4C)c3N)n2)cc1` the value was -1.04%; for `c1ccc(CSc2nc3ccccc3n2Cc2ccccn2)cc1`, 1.31%; for `CN(C)CCn1c(NC(=O)c2ccc(Cl)cc2)nc2ccccc21`, 0.751% and -1.88%.
With `COc1ccc(N(CC(=O)Nc2ccc(C)cc2C)S(C)(=O)=O)cc1Cl` the figure was 3.17%.
On to `CC(C)c1ccc(OCC(O)CN2CCN(Cc3ccc4c(c3)OCO4)CC2)cc1` (stereo not shown), for which the “% Inhibition @ 10 uM” value is given as -11.6%.
For `COc1cccc(NC(=O)c2cccc(F)c2)c1` the value was -2.03%.
Turning to `O=C(c1cc2ccccc2cc1O)N1CCCCC1`, the “% Inhibition @ 10 uM” value was -2.04%.
For `Cc1ccc(CC(=O)Nc2ccc(S(=O)(=O)NC(C)(C)C)cc2)cc1` the value was -4.33%; for `O=C1NC(=O)N(c2ccccc2)C(=O)/C1=C\Nc1ccc2[nH]c(O)nc2c1`, 2.36%; for `O=C(Nc1ccc(S(=O)(=O)N2CCCCCC2)cc1)C(F)(F)F`, 2.85%.
For `COc1ccc(N(CC(O)CN2CCC(C)CC2)S(=O)(=O)c2ccc(C)cc2)cc1` (stereo not shown) the value was -0.63%; for `CCN(CC)C(=O)c1ccc(COc2ccccc2Cl)o1`, 2.05%.
With `Cc1cc(C)c(Cn2c3ccccc3c3cnn(CC(=O)N4CCOCC4)c(=O)c32)c(C)c1` the figure was -3.35%; with `CCOc1ccccc1C(=O)Nc1nnc(COC)s1`, -1.52%.
For the compound `CC(C)NC(=O)c1cn(C2CCCC2)c(=O)c2c1c1ccccc1n2C`, the “% Inhibition @ 10 uM” value is given as -5.27%.
For `COCCCNC(=O)C1CCN(c2nnc(C)c3c(C)n(-c4ccc(C)cc4)nc23)CC1` the value was 0.361%; for `CCOc1ccc(-c2[nH]c3c(C(=O)OC)cnn3c2NC2CCCCC2)cc1OC`, -0.519%.
